# In publication PMC4336329 (PLoS ONE, 2015):
# Screen size: about 310,000 compounds; about 14,000 (4.5%) showed an effect of 50% or more. Effects have a minus sign here. The list shows a part of the results.
# Molecular target: human ether-à-go-go-related gene (hERG) potassium channel (human, UniProt Q12809)
# Assay: primary screen, population patch clamp on CHO cells stably expressing hERG
# 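Further: peak tail current of the secondary pulse compared with the same well before compound.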
# Sequence of human ether-à-go-go-related gene (hERG) potassium channel (Q12809 whole entry, looked up): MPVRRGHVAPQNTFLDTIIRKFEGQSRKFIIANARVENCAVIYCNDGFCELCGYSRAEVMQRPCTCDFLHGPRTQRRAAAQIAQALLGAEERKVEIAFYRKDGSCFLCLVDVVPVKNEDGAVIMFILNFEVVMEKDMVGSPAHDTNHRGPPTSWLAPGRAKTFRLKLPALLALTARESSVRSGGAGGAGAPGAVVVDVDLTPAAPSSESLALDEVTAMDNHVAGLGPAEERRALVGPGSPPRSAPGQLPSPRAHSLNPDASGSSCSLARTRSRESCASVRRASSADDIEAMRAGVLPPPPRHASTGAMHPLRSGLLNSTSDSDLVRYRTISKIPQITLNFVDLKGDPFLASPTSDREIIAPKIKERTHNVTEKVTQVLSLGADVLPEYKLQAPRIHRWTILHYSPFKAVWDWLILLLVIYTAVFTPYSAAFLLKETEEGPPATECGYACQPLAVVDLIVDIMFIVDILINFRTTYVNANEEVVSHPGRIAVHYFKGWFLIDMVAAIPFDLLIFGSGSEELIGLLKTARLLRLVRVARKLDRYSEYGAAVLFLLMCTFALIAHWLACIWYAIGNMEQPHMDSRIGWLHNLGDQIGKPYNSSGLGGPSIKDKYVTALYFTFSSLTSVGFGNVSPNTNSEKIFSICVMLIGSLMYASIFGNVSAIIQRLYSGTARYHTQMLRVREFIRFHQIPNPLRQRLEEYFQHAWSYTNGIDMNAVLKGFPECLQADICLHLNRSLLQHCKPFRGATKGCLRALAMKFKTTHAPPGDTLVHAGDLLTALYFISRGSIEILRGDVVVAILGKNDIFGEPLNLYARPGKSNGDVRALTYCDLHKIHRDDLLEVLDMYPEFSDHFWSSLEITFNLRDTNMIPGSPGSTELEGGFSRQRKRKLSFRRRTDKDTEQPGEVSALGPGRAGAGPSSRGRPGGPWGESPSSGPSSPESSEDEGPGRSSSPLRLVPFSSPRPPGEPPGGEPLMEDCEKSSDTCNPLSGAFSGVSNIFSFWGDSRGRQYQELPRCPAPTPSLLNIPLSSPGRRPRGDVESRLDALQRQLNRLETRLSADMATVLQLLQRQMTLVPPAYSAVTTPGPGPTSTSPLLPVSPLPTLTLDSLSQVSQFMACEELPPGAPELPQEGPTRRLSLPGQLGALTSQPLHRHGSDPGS
row,SMILES,"hERG current change (%, negative = inhibition) at 10uM"
1,CCCc1nc2n[nH]c(N)c2c2c1CCC2,-8.87%
2,Clc1ccc(SCCCN2CCCCC2)cc1.O=C(O)C(=O)O,-76%
3,Cc1cccc(-n2c(SCC(N)=O)nnc2-c2ccccn2)c1C,1.28%
4,CC#CCCc1nc2ccccc2c(=O)n1N,15.9%
5,Cc1nn(C)cc1CN1CCCC(C(=O)c2ccc(-c3ccccc3)c(F)c2)C1 (stereo not shown),-15.3%
6,CCOc1ccc(N2CSC(=S)N(c3ccc(OCC)cc3)C2)cc1,2.45%
7,CCOc1ccc(NC(=O)CC2C(=O)N(C)C(=S)N2CCCc2ccccc2)cc1 (stereo not shown),-12%
8,CNc1cccccc1=S,5.49%
9,CCc1nc2cc([N+](=O)[O-])c([N+](=O)[O-])cc2[nH]1,-14.5%
10,CC(C(=O)Nc1ccccc1C(=O)N1CCCC1)n1nnc2ccccc21 (stereo not shown),-0.39%
11,CN1CCNC(=O)C1CC(=O)NCCc1ccccc1F (stereo not shown),13.4%
12,CC1CC(C)CN(CC(=O)NNC(=O)COc2ccc(Cl)cc2)C1 (stereo not shown),-25%
13,NC(=O)c1ccccc1N/C=C/C(=O)c1ccc(Cl)cc1,11.2%
14,O=C(CC1C(=O)NCCN1CC(c1ccccc1)c1ccccc1)NCC1CCOCC1 (stereo not shown),6.24%
15,COc1ccc(OCCC(=O)Nc2ccc(S(N)(=O)=O)cc2)cc1,5.19%
16,CCOC(=O)N1CCN(C(=O)Cc2ccc(Cl)cc2)CC1,-0.647%
17,COC(=O)C(NC(=O)Nc1ccccc1OC)C(C)C (stereo not shown),15.9%
18,Cc1ccc(NCc2ccccc2O)cc1C,13.1%
19,O=S(=O)(NCC1CCCO1)c1ccc(S(=O)(=O)N(Cc2ccc(F)cc2)Cc2ccccn2)cc1 (stereo not shown),-3.76%
20,N#CCC(=O)N/N=C/c1ccc(OCc2ccccc2)cc1,11.3%
21,O=C(Nc1ccc(F)cc1)C1CCC(CNc2c(N3CCCCC3)c(=O)c2=O)CC1 (stereo not shown),6.72%
22,CCOc1cc(N2CCOCC2)c(OCC)cc1NC(=O)COC(=O)/C=C/c1ccc(OC(F)F)cc1,-0.839%
23,CCOCCSc1nc2c(c(=O)[nH]c(=O)n2C)n1CCCc1ccccc1,-26.2%

row,SMILES,"hERG current change (%, negative = inhibition) at 10uM"
1,CCOC(=O)c1ccc(CN(Cc2ccc(C)cc2)S(=O)(=O)c2cccc([N+](=O)[O-])c2)cc1,2.59%
2,Oc1ccc(C=Nc2ccccc2-c2nc3ccccc3[nH]2)c(O)c1,-10%
3,Cc1cc(C)nc(N/N=C/c2ccco2)n1,6.04%
4,O=C1CCCN1c1ccc(S(=O)(=O)NCCc2ccc(Cl)cc2)cc1,-13.6%
5,COC(=O)CN1C(=S)N(C)C(=O)C1CC(=O)Nc1ccccc1 (stereo not shown),-2%
6,Nc1ccncc1,5%
7,COc1ccc(CNC(=O)CN(Cc2ccccc2F)C(=O)c2csnn2)cc1,-32.7%
8,CC12CCC(=O)N1C(C(=O)NCCN1C(=O)S/C(=C\c3ccc(OC(F)F)cc3)C1=O)CS2 (stereo not shown),-27.8%
9,S=C(N/N=C/c1ccccc1)N1CCOCC1,10.7%
10,O=C(Nc1ccsc1C(=O)N1CCCCCC1)c1ccccc1,-21.1%
11,CC(=O)c1cccc(NC(=O)C(C)OC(=O)Cc2c[nH]c3ccccc23)c1 (stereo not shown),-2.32%
12,CCC1CCC/C1=N\NC(=O)c1cc(C)[nH]n1 (stereo not shown),4.17%
13,Cc1ccc(NC(=O)c2ccco2)cc1C,-16.5%
14,CC(NC(=S)N1CCOCC1)c1ccccc1 (stereo not shown),7.19%
15,CC(C)CNC(=S)N1CCC(NC(=O)C23CC4CC(CC(C4)C2)C3)CC1,-7.73%
16,COc1ccc(/C=C2\SC(=S)N(NC(=O)c3csc4c3CCCC4)C2=O)cc1,-4.99%
17,NC(=O)c1nsc(C(=O)N(c2ccccc2)C(C(=O)NC2CCCC2)c2cccs2)c1N (stereo not shown),9.77%
18,O=C(c1ccc(N2CCCC2)c([N+](=O)[O-])c1)N1CCN(CCO)CC1,-5.39%
19,Clc1ccccc1N=C1NN=C(c2cccs2)CS1,-8.59%
20,C=CCNC(=S)N/N=C/c1ccc(N(CC)Cc2ccccc2)cc1,27.2%
21,COc1ccc(NC(=O)CSc2nc3ccccc3c(=O)n2CCCN2CCOCC2)c(OC)c1,-34.6%
22,Cc1ccc(S(=O)(=O)Cn2nnnc2C(C(C)C)N2CCC(O)CC2)cc1 (stereo not shown),13.7%
23,CCC1C(=O)N=C(SCC(=O)Nc2ccc(S(N)(=O)=O)cc2)NC1=O (stereo not shown),7.08%

row,SMILES,"hERG current change (%, negative = inhibition) at 10uM"
1,C=C(C)C(=O)Nc1cccc(C2=NOC3(C2)C[C@H](C(N)=O)N(C(=O)COc2ccc(Cl)cc2)C3)c1 (stereo partly shown),-2.21%
2,Cc1ccc(S(=O)(=O)CCC(=O)OCc2ccc(Cl)cc2)cc1,3.3%
3,O=C(O)/C=C/C(=O)NC1CC1,41.9%
4,Cc1noc(C)c1Cn1nc(C(=O)O)c2ccccc2c1=O,-9.42%
5,Cc1nc(CCNC(=O)Cc2ccc(Cl)cc2)cs1,3.38%
6,Oc1ccc(C[C@H]2CNCCN2CCC23CC4CC(CC(C4)C2)C3)cc1,-11.7%
7,CCNC(=S)Nc1ccc(Cl)cc1Cl,-14%
8,COc1ccccc1NC(=O)CC1Nc2ccccc2NC1=O (stereo not shown),13.2%
9,Cc1cc(C)c(NC(=O)c2c[nH]c(=S)n2-c2ccc(F)cc2)c(C)c1,5.97%
10,CCn1c(SCC(=O)Nc2cc(C)on2)nnc1-c1ccc(C)cc1,14.5%
11,Cn1nc(C(F)(F)F)c(C#N)c1N1CCN(c2cccc(C(F)(F)F)c2)CC1,3.01%
12,COc1cccc(N(CC(=O)NC2CCCCC2)C(=O)c2snc(C(N)=O)c2N)c1,-7.28%
13,CCc1ccc(-c2cc(C)no2)cc1S(=O)(=O)N1CCN(c2ccc(OC)cc2)CC1,15.3%
14,CCNc1nc(NCC)n2c(SCC(=O)Nc3ccccc3F)nnc2n1,-28.4%
15,CCOC(=O)c1c(C)[nH]c(C(=O)OCC(=O)c2ccc(OC)cc2OC)c1C,1.08%
16,O=Cc1ccc(-n2cc(C=O)c3ccccc32)cc1,9.63%
17,COc1nc(-c2ccc(C)cc2)ccc1-c1noc(-c2ccco2)n1,9.52%
18,O=[n+]1cc(-c2cccc3ccccc23)n([O-])c2c1CCC2,-4.44%
19,Cc1ccc(SC(C)C(=O)N2CCCC2)cc1 (stereo not shown),5.92%
20,CN(C)S(=O)(=O)c1ccc(C(=O)NCc2nnc(SCC(=O)N3CCCC3)o2)cc1,14.1%
21,CCCOc1ccc([C@@H]2C3CN(C(=O)OCC)CC=C3C(C#N)=C(N)C2(C#N)C#N)cc1OC (stereo partly shown),8.84%
22,CCC(CC)C(=O)Nc1cc(C(=O)NCCc2ccccc2)ccc1Cl,-8.24%
23,C/C(=C\C=C\c1ccccc1)C(=O)c1c(C)cc(C)[nH]c1=O,17.7%

row,SMILES,"hERG current change (%, negative = inhibition) at 10uM"
1,CN(CC(=O)Nc1ccc(F)cc1)C(=O)c1ccc(-c2ccc(Cl)cc2)o1,0.0243%
2,COc1ccc(C(=O)Nn2c(CCC(=O)O)ccc2-c2ccc(C)cc2)cc1OC,14.5%
3,COc1ccc(-c2csc(NC(=O)C3CCN(c4ncnc5sc(C)c(C)c45)CC3)n2)cc1OC,17.4%
4,COc1ccc(S(=O)(=O)NC2CCCCC2)cc1-n1cnnn1,-8.45%
5,CC/C(C)=C1\SC(N2CCOCC2)=NC1=O,10.5%
6,Cn1c(SCc2nnc3n2CCCCC3)nc2ccccc21,3.08%
7,CC(C)(C)c1cc(-c2n[nH]c(=S)n2-c2ccc(Cl)cc2)n[nH]1,17.3%
8,CCC(Sc1nc2ccsc2c(=O)n1-c1ccc(Cl)c(C)c1)C(=O)NCc1ccco1 (stereo not shown),-16.8%
9,CCOC(=O)c1oc2c(C)c(O)ccc2c(=O)c1-c1nncn1-c1ccccc1,16.1%
10,COc1ccc(C2(C(=O)NCCCN3CCOCC3)CCOCC2)cc1.Cl,10.6%
11,CCN(CC)C(=O)/C=C/c1ccc(OC)c(S(=O)(=O)N2CCCCC2)c1,2.81%
12,CCc1ccc(NC(=O)C(=O)NCCN2CCN(Cc3ccc([N+](=O)[O-])cc3)CC2)cc1,-72.5%
13,COc1cccc(-n2c(C)nnc2SCC#N)c1,-11.7%
14,CC1CN(C(=O)Cc2ccc(-c3ccccc3)cc2)CC(C)O1 (stereo not shown),0.547%
15,CCOc1ccc(NC(=O)CN(C)C(=O)c2c(-c3ccccc3)noc2C)cc1OCC,-14.5%
16,O=C1N(CN2CCN(Cc3ccccc3)CC2)c2ccccc2C12OCCCO2,8.4%
17,CNC(=O)c1sc(-c2ccccn2)nc1C,21.4%
18,O=C(NCc1cccc(Cl)c1)C1=CC=CN2CCS(=O)(=O)N=C12,-5.54%
19,COc1ccc(N(Cc2ccco2)C(=O)c2ccccc2F)cc1OC,1.11%
20,CCCNC(=O)N1[C@H]2CC[C@@H]1C(C(=O)OC)=C(c1cccc(OC)c1OC)C2,7.17%
21,CC1=C(C)CC(C(=O)Nc2cccc(Cl)c2)C(C(=O)O)C1 (stereo not shown),9.8%
22,CCCCC1CCC(C(=O)N(CCOC)c2c(N)n(CC(C)C)c(=O)[nH]c2=O)CC1 (stereo not shown),13%
